Paper PMC4336329 (PLoS ONE, 2015)
Hit rate of the full screen: of about 310,000 compounds, about 2,200 (0.71%) showed an effect of 50% or more. The effect is printed as a negative number. The list shows a part of the results.

molecular target: human ether-à-go-go-related gene (hERG) potassium channel (human, UniProt Q12809); assay: primary screen, population patch clamp on CHO cells stably expressing hERG
Sequence (Q12809 whole entry, looked up): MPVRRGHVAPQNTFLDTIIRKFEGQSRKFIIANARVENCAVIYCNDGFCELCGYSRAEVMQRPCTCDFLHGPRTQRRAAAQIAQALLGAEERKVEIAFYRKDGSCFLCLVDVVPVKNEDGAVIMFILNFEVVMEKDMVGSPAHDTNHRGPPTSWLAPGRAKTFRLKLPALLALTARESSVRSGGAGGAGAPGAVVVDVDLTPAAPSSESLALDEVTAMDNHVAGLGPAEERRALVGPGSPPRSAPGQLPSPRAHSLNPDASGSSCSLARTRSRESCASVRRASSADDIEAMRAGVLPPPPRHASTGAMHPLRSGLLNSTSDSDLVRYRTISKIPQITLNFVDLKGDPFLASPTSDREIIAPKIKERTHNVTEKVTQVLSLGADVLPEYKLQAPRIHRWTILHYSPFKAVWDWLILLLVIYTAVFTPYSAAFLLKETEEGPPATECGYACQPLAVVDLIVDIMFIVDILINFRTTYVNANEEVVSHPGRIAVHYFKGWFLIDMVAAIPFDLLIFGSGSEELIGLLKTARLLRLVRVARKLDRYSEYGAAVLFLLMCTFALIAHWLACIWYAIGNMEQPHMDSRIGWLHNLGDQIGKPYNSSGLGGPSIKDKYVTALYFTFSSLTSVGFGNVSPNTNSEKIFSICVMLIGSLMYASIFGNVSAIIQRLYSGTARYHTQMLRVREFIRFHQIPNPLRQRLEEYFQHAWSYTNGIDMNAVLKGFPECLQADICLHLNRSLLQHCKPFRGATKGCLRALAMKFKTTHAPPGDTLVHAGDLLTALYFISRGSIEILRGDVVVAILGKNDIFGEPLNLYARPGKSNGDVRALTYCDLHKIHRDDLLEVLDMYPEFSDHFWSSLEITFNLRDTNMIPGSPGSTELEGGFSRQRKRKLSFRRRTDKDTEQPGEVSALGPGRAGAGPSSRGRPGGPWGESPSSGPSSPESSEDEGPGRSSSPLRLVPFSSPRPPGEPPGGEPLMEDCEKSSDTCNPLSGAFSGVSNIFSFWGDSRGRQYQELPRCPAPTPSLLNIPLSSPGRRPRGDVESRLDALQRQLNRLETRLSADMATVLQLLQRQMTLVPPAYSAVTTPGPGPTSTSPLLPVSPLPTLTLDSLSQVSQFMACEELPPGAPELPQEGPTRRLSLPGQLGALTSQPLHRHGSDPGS

Row | SMILES | hERG current change (%, negative = inhibition) at 1uM
1 | CCOC(=O)c1c(NC(=O)c2cccs2)sc2c1CCC2 | 24%
2 | O=C(NCCCc1ccccc1)C1CCC(CNc2c(N3CCCCC3)c(=O)c2=O)CC1 (stereo not drawn) | 10.7%
3 | CN(C(=O)CSc1nc2ccc(Br)cc2c(=O)n1Cc1ccco1)C1CCS(=O)(=O)C1 (stereo not drawn) | -83.1%
4 | CCN(CC(=O)Nc1ccccc1OC)C(=O)C1CCC1 | 13.6%
5 | CCCCCC(=O)NC(=S)Nc1ccc2oc(=O)ccc2c1 | 10.9%
6 | CCOc1ccc(C(=O)NC(=S)Nc2ncccc2C)cc1[N+](=O)[O-] | -19.1%
7 | O=C(C(=O)N1CCCC1)c1c(-c2ccccc2)[nH]c2ccccc12 | 10.6%
8 | COc1cc(OC)c(NC(=O)CCNS(=O)(=O)c2ccc3c(c2)CC(C)N3C(C)=O)cc1Cl (stereo not drawn) | -2.01%
9 | COc1ccc(OCCCC(=O)OCC(=O)NNC(=O)c2ccc([N+](=O)[O-])cc2)cc1 | 11.1%
10 | Cc1ccc2nc3c(c(Nc4cccc(O)c4)c2c1)CCC3.Cl | -35.1%
11 | Cc1cc(N2CCCC2=O)cc(C)c1S(=O)(=O)NCCOc1ccc(C(C)(C)C)cc1 | 1.61%
12 | O=C(CSC(=S)N1CCCC1)Nc1ncc(Cl)cc1Cl | 21.2%
13 | CCNC(=O)c1ccc(C2SCC(=O)N2CCc2ccccc2)cc1 (stereo not drawn) | -10.8%
14 | COc1ccccc1NC(=S)NC(=O)c1c(-c2ccccc2Cl)noc1C | 13.1%
15 | Cc1cc2cc(C)c(NCCNC(=O)c3ccccc3Cl)nc2cc1C | 10.1%
16 | CC(C)(C)NC(=O)C(c1ccc(F)cc1)N(Cc1cccs1)C(=O)c1ccc(CN2CCOCC2)o1 (stereo not drawn) | 10.7%
17 | CC(=O)Nc1cccc(C(=O)N2CCC(n3nccc3NC(=O)CC(C)C)CC2)c1 | -12.4%
18 | O=C(c1cc(-c2cccs2)nc2ccccc12)N1CCN(S(=O)(=O)c2cccc(F)c2)CC1 | 11%
19 | OCCNCc1ccc(OC2CCCC2)cc1 | 17.1%
20 | Cc1cc(C)cc(NC(=O)CN2CCN(C(=O)C3CCCO3)CC2)c1 (stereo not drawn) | 8.76%
21 | Clc1ccc(Br)cc1-c1nc(-c2ccncc2)no1 | 11%
22 | CCN1C(=O)/C(=c2\sc3nc(=O)c(Cc4ccccc4)nn3c2=O)c2ccccc21 | 12.1%
23 | CCOc1ccc(NC(=S)NC(=O)c2c(Br)cnn2C)c([N+](=O)[O-])c1 | 13.5%
24 | O=C1NC2=C(C(=O)CCC2)C(c2ccc([N+](=O)[O-])cc2)N1 (stereo not drawn) | 13.3%
